From patent US20230382995A1 (BEIJING MABWORKS BIOTECH, published 2023)

Tests used:
[1] = target: T1, human PD-L1 on HEK293A/human PD-L1 cells (human, UniProt Q9NZQ7); experiment: FACS on HEK293A/human PD-L1 cells
T1 construct: Stably expressed on HEK293A cells by lentiviral transduction; also called HEK293/human PD-L1 cells; cell surface human PD-L1

[2] = target: T2, mouse PD-L1 on HEK293A/mouse PD-L1 cells (mouse, UniProt Q9EP73); experiment: FACS on HEK293A/mouse PD-L1 cells
T2 construct: Stably expressed on HEK293A cells by lentiviral transduction
T2 sequence (Q9EP73 19-290 limits assumed): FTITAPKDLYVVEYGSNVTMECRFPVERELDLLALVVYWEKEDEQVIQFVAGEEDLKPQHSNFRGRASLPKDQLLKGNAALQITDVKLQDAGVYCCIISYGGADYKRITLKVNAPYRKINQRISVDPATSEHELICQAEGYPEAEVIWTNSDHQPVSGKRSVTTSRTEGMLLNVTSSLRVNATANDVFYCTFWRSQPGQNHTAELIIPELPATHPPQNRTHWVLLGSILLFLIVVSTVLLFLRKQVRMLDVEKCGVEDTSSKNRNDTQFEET

[3] = target: T3, monkey PD-L1 on HEK293A/monkey PD-L1 cells (monkey, UniProt Q9NZQ7 (human entry)); experiment: FACS on HEK293A/monkey PD-L1 cells
T3 construct: Stably expressed on HEK293A cells by lentiviral transduction; also called HEK293/monkey PD-L1 cells; cell surface monkey PD-L1

[4] = target: T1, human PD-L1 on HEK293A/human PD-L1 cells; experiment: FACS blocking assay: PD1-mFc binding to HEK293A/human PD-L1 cells
T1 sequence (Q9NZQ7 19-290 limits assumed): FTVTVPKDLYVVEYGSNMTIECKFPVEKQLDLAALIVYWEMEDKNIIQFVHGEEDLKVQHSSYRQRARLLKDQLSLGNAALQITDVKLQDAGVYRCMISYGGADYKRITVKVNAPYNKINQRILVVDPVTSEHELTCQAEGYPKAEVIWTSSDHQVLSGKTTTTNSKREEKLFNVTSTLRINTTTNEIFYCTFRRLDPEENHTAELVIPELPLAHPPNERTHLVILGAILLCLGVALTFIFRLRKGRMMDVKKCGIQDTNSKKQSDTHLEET

[5] = target: T4, human PD-L1 (ECD)-his protein (Cat #:10084-H08H, Sino Biological) (human, UniProt Q9NZQ7 in part); experiment: SPR (BIAcore 8K), PD-L1 (ECD)-his coupled to the chip, fusion protein injected
T4 construct: Bought reagent; also called human PD-L1 protein; not shown: his tag of the bought protein
Protocol: The equilibrium dissociation constant KD was calculated as the kd/kₐ ratio.

Binder | EC50 [1] | binding result [2] | EC50 [3] | EC50 [4] | Kd [5]
10CA192-Fc (camelid anti-PD-L1 sdAb 10CA192 fused to human IgG1 Fc region) (Fc fusion, C-terminus of the sdAb linked to the N-terminus of the Fc region; also called fusion protein containing 10CA192; 10CA192-Fe) QVQLQESGGGSVQAGGSLMLSCAASGFAFSDYAMTWVRQAPGKGLEWVSTINSGGQSSSYLDSVKGRFTSTRDNAKNMLYLQLNSLKIEDTAMYYCSQGVYMPWKAPKGQGTQVTVSS[letters of human IgG1 Fc left out] | 0.51 nM | no binding | 0.17 nM | 0.18 nM | –
10CA81-VHH4-Fc (humanized sdAb 10CA81-VHH4 fused to human IgG1 constant region) (Fc fusion, Expressed in the ExpiCHO system) QVQLLESGGGLVQPGGSLRLSCAASGFAFSDYAMTWVRQAPGKGLEWVSTINSGGQSSSYTNSAKGRFTTSRDNSKNTLYLQMNSLRAEDTAVYYCAKGVYMPWKKPKGQGTLVTVSS[letters of human IgG1 Fc left out] | – | – | – | – | 2.26 nM
10CA192-VHH2-Fc (humanized sdAb 10CA192-VHH2 fused to human IgG1 constant region) (Fc fusion, Expressed in the ExpiCHO system) QVQLLESGGGLVQPGGSLRLSCAASGFAFSDYAMTWVRQAPGKGLEWVSTINSGGQSSSYLDSVKGRFTISRDNSKNTLYLQMNSLRAEDTAVYYCAKGVYMPWKAPWGQGTLVTVSS[letters of human IgG1 Fc left out] | – | – | – | – | 0.8 nM
10CA81-Fc (camelid anti-PD-L1 sdAb 10CA81 fused to human IgG1 Fc region) (Fc fusion, C-terminus of the sdAb linked to the N-terminus of the Fc region; also called fusion protein containing 10CA81) QVQLQESGGGLVQPGGSLRLSCVASGFAFSDYAMTWVRQAPGKGLEWVSTINSGGQSSSYTNSAKGRFTTSRDNAKNTLYLQLNSLKIEDTAMYYCSQGVYMPWKKPKGQGTQVTVSS[letters of human IgG1 Fc left out] | 0.23 nM | no binding | 0.13 nM | 0.11 nM | –

Next, values leading:

EC50 [1] | binding result [2] | EC50 [3] | EC50 [4] | Kd [5] | Binder
– | – | – | – | 4.54 nM | 10CA81-VHH5-Fc (humanized sdAb 10CA81-VHH5 fused to human IgG1 constant region) (Fc fusion, Expressed in the ExpiCHO system; also called 10CA81-VH5-Fc) QVQLLESGGGLVQPGGSLRLSCAASGFAVSDYAMTWVRQAPGKGLEWVSTINSGGQSSSYTNSAKGRFTISRDNSKNTLYLQMNSLRAEDTAVYYCSQGVYMPWKKPKGQGTLVTVSS[letters of human IgG1 Fc left out]
– | – | – | – | 0.679 nM | 10CA192-VHH4-Fc (humanized sdAb 10CA192-VHH4 fused to human IgG1 constant region) (Fc fusion, Expressed in the ExpiCHO system) QVQLLESGGGLVQPGGSLRLSCAASGFAFSDYAMTWVRQAPGKGLEWVSTINSGGQSSSYLDSVKGRFTSSRDNSKNTLYLQMNSLRAEDTAVYYCAKGVYMPWKAPKGQGTLVTVSS[letters of human IgG1 Fc left out]
